Measured values published in PubChem BioAssay AID588453 (National Center for Advancing Translational Sciences (NCATS), 2011).
“And” between values parts separate entries of the source, which are not always exact repeats. Equal entries are not always repeated. Among all 390,000 compounds or so, about 4,000 (1%) were called active. The inconclusive results got no clear call from the source; some entries with a clear call stand among them for comparison. Calls come from the whole dose curve; as a rule, active = well fitted inhibition curve with a large enough effect; inconclusive = small, poorly fitted or top-dose-only effect; inactive = no such curve, though single readings can be large or run the other way. Potencies beside an inconclusive call are fits to weak or partial responses and may not hold up.

Biological target: Thioredoxin reductase 1, cytoplasmic (Rattus norvegicus) (UniProt O89049)
Test: qHTS Assay for Inhibitors of Mammalian Selenoprotein Thioredoxin Reductase 1 (TrxR1): qHTS; note: nearly all actives have a fitted effect of over 65% in size
Settings: recombinant rTrxR1, NADPH fluorescence consumption, selenite substrate; series mostly up to 114 µM
In short: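 Rat TrxR1 (90 nM in the dispensed reagent) was pre-reduced with 400 uM NADPH for 5 min at room temperature, then incubated with compound for 15 min. After 400 uM selenite was added, NADPH fluorescence (Ex 340/Em 450 nm) was followed for 8 min.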
Potency is the fitted concentration of half-maximal effect; tags give direction and shape of the fitted curve.

Sequence of UniProt O89049 (O89049 whole entry, looked up): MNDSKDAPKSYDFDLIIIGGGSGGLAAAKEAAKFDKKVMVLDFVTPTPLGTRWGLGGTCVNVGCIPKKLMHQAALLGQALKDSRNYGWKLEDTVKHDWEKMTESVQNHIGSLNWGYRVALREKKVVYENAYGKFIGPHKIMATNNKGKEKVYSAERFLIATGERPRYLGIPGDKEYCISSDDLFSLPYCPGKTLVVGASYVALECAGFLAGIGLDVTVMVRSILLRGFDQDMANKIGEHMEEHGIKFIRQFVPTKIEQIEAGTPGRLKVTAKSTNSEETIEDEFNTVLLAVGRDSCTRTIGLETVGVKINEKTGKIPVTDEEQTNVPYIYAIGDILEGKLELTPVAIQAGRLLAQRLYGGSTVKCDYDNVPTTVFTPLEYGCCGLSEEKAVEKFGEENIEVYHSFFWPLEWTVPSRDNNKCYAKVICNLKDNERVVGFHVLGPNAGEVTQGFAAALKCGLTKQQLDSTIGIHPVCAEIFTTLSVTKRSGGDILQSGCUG

Row | SMILES | Potency
1 | O=c1[nH]c(=S)n(C2CC2)c(O)c1C=Nc1ccc2c(c1)OCO2 | inactive
2 | COc1ccc(CCN)cc1O | inactive
3 | Cc1ccc(/C=C2\C(=O)NC(=O)N(CCc3ccc(F)cc3)C2=O)o1 | inconclusive: 22.4 µM [inhibitor, partial curve, poor fit]
4 | C[C@]12CC[C@H](OS(=O)(=O)O)CC1=CCC1C2CC[C@]2(C)C(=O)CC[C@@H]12 (some centres not stated) | inconclusive: 11.9 µM [inhibitor, partial curve, poor fit]
5 | O=c1[nH]c(=O)n(-c2ccccc2)c(O)c1/C=C/C=Nc1ccccc1 | inconclusive: 50.1 µM [inhibitor, partial curve]
6 | O=C1CC(=O)N(Cc2ccccc2)C(=S)N1 | inconclusive: 5.62 µM [inhibitor, full curve, poor fit]
7 | Brc1c(NC2=NCCN2)ccc2nccnc12 | inconclusive: 26.7 µM [inhibitor, partial curve] and inconclusive: 12.6 µM [inhibitor, partial curve]
8 | O=C(O)Cn1cc(/C=C2\C(=O)NC(=O)N(Cc3ccco3)C2=O)c2ccccc21 | active: 31.6 µM
9 | N#C/C(=C\c1ccc(O)c(O)c1)C(=O)NCCCNC(=O)/C(C#N)=C/c1ccc(O)c(O)c1 | inconclusive: 39.8 µM [inhibitor, partial curve] and inconclusive: 3.36 µM [inhibitor, partial curve, poor fit]
10 | COC(=O)C1CN(C#N)N(c2ccc(Cl)cc2)C12c1ccccc1-c1ccccc12 (configuration not stated) | inconclusive: 20 µM [inhibitor, single point]
11 | Cc1cccc(N2C(=O)NC(=O)/C(=C\c3ccc4c(c3)CCCN4Cc3ccccc3)C2=O)c1 | inconclusive: 25.1 µM [inhibitor, partial curve, poor fit]
12 | CN1CCC(O)(c2ccc(Cl)cc2)C(C(=O)c2ccc(Cl)cc2)C1 (configuration not stated) | active: 0.112 µM
13 | COc1cc(OC)c(OC)cc1/C=C1/C(=O)NC(=O)N(Cc2ccccc2)C1=O | inactive
14 | COP(=O)(OC)c1nc(-c2cccc3ccccc23)oc1N1CCOCC1 | inconclusive: 39.8 µM [inhibitor, single point]
15 | O=C(O)c1ccc([N+](=O)[O-])c([N+](=O)[O-])c1 | inconclusive: 50.1 µM [inhibitor, partial curve]
16 | COc1ccc(/C=C2\C(=O)NC(=O)N(CCC3=CCCCC3)C2=O)c(OC)c1 | inconclusive: 39.8 µM [inhibitor, partial curve]
17 | COc1cccc(Oc2c(C)oc3cc(OC(=O)N(C)C)ccc3c2=O)c1 | inactive
